# According to the supplement of paper PMC8728848:
# This is one part of the list.
# How the values were obtained:
# Test in all cases: glycan array binding signal (z-score within array); higher = stronger binding
# Details in all cases: glycan notation: IUPAC condensed, linker removed
# [1] = molecular target: Fuc(a1-2)[Gal(a1-3)]Gal(b1-4)GlcNAc(b1-2)Man(a1-3)[Fuc(a1-2)[Gal(a1-3)]Gal(b1-4)GlcNAc(b1-2)Man(a1-6)]Man(b1-4)GlcNAc(b1-4)[Fuc(a1-6)]GlcNAc
# In short: (§1)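 The Consortium for Functional Glycomics database supplied 3228 glycan arrays, of which those lacking an available protein sequence were dropped. The binding signal, a within-array Z-score, was averaged across arrays of the same protein sequence and across linkers. Negative scores can be read as non-binding.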
# [2] = molecular target: Fuc(a1-2)[Gal(a1-3)]Gal(b1-4)GlcNAc(b1-3)GalNAc
# In short: as §1
# [3] = molecular target: Fuc(a1-2)[Gal(a1-3)]Gal(b1-4)GlcNAc(b1-3)[Fuc(a1-2)[Gal(a1-3)]Gal(b1-4)GlcNAc(b1-6)]GalNAc
# In short: as §1
# [4] = molecular target: Fuc(a1-2)[Gal(a1-3)]Gal(b1-4)GlcNAc(b1-6)GalNAc
# In short: as §1
# [5] = molecular target: Fuc(a1-2)[Gal(a1-3)]Gal(b1-4)[Fuc(a1-3)]Glc
# In short: as §1
# [6] = molecular target: Fuc(a1-2)[Gal(a1-3)]Gal(b1-4)[Fuc(a1-3)]GlcNAc
# In short: as §1
# [7] = molecular target: Fuc(a1-2)[Gal(a1-3)]Gal(b1-4)[Fuc(a1-3)]GlcNAc(b1-3)GalNAc
# In short: as §1
# [8] = molecular target: Fuc(a1-2)[Gal(a1-4)]Gal(b1-4)GlcNAc
# In short: as §1
# [9] = molecular target: Fuc(a1-2)[GalNAc(a1-3)]Gal
# In short: as §1
# [10] = molecular target: Fuc(a1-2)[GalNAc(a1-3)]Gal(b1-3)GalNAc(a1-3)[Fuc(a1-2)]Gal(b1-4)GlcNAc
# In short: as §1
# [11] = molecular target: Fuc(a1-2)[GalNAc(a1-3)]Gal(b1-3)GalNAc(b1-3)Gal(a1-4)Gal(b1-4)Glc
# In short: as §1
# [12] = molecular target: Fuc(a1-2)[GalNAc(a1-3)]Gal(b1-3)GlcNAc
# In short: as §1
# [13] = molecular target: Fuc(a1-2)[GalNAc(a1-3)]Gal(b1-3)GlcNAc(b1-2)Man(a1-3)[Fuc(a1-2)[GalNAc(a1-3)]Gal(b1-3)GlcNAc(b1-2)Man(a1-6)]Man(b1-4)GlcNAc(b1-4)GlcNAc
# In short: as §1
# [14] = molecular target: Fuc(a1-2)[GalNAc(a1-3)]Gal(b1-3)GlcNAc(b1-2)Man(a1-3)[Fuc(a1-2)[GalNAc(a1-3)]Gal(b1-3)GlcNAc(b1-2)Man(a1-6)]Man(b1-4)GlcNAc(b1-4)[Fuc(a1-6)]GlcNAc
# In short: as §1
# [15] = molecular target: Fuc(a1-2)[GalNAc(a1-3)]Gal(b1-3)GlcNAc(b1-3)GalNAc
# In short: as §1
# [16] = molecular target: Fuc(a1-2)[GalNAc(a1-3)]Gal(b1-3)GlcNAc(b1-6)GalNAc
# In short: as §1
# [17] = molecular target: Fuc(a1-2)[GalNAc(a1-3)]Gal(b1-4)Glc
# In short: as §1
# [18] = molecular target: Fuc(a1-2)[GalNAc(a1-3)]Gal(b1-4)GlcNAc
# In short: as §1
# [19] = molecular target: Fuc(a1-2)[GalNAc(a1-3)]Gal(b1-4)GlcNAc(b1-2)Man
# In short: as §1
# [20] = molecular target: Fuc(a1-2)[GalNAc(a1-3)]Gal(b1-4)GlcNAc(b1-2)Man(a1-3)[Fuc(a1-2)[GalNAc(a1-3)]Gal(b1-4)GlcNAc(b1-2)Man(a1-6)]Man(b1-4)GlcNAc(b1-4)GlcNAc
# In short: as §1
# [21] = molecular target: Fuc(a1-2)[GalNAc(a1-3)]Gal(b1-4)GlcNAc(b1-2)Man(a1-3)[Fuc(a1-2)[GalNAc(a1-3)]Gal(b1-4)GlcNAc(b1-2)Man(a1-6)]Man(b1-4)GlcNAc(b1-4)[Fuc(a1-6)]GlcNAc
# In short: as §1
# [22] = molecular target: Fuc(a1-2)[GalNAc(a1-3)]Gal(b1-4)GlcNAc(b1-3)Gal(b1-4)GlcNAc
# In short: as §1
# [23] = molecular target: Fuc(a1-2)[GalNAc(a1-3)]Gal(b1-4)GlcNAc(b1-3)Gal(b1-4)GlcNAc(b1-3)Gal(b1-4)GlcNAc
# In short: as §1
# [24] = molecular target: Fuc(a1-2)[GalNAc(a1-3)]Gal(b1-4)GlcNAc(b1-3)GalNAc
# In short: as §1
# [25] = molecular target: Fuc(a1-2)[GalNAc(a1-3)]Gal(b1-4)GlcNAc(b1-3)[Fuc(a1-2)[GalNAc(a1-3)]Gal(b1-4)GlcNAc(b1-6)]GalNAc
# In short: as §1
# [26] = molecular target: Fuc(a1-2)[GalNAc(a1-3)]Gal(b1-4)GlcNAc(b1-6)GalNAc
# In short: as §1
# [27] = molecular target: Fuc(a1-2)[GalNAc(a1-3)]Gal(b1-4)[Fuc(a1-3)]GlcNAc
# In short: as §1
# [28] = molecular target: Fuc(a1-2)[GalNAc(a1-3)]Gal(b1-4)[Fuc(a1-3)]GlcNAc(b1-3)GalNAc
# In short: as §1
# [29] = molecular target: Fuc(a1-2)[GalNAc(a1-4)]Gal(b1-4)GlcNAc
# In short: as §1
# [30] = molecular target: Fuc(a1-2)[GalNAc(b1-3)]Gal
# In short: as §1
# Fuc(a1-3)GlcNAc = molecular target: Fuc(a1-3)GlcNAc
# In short: as §1
# [31] = molecular target: Fuc(a1-3)[Gal(b1-4)]Glc6S
# In short: as §1
# [32] = molecular target: Fuc(a1-3)[Gal(b1-4)]GlcNAc
# In short: as §1
# [33] = molecular target: Fuc(a1-3)[Gal(b1-4)]GlcNAc(b1-2)Man
# In short: as §1
# [34] = molecular target: Fuc(a1-3)[Gal(b1-4)]GlcNAc(b1-2)Man(a1-3)[Fuc(a1-3)[Gal(b1-4)]GlcNAc(b1-2)Man(a1-6)]Man(b1-4)GlcNAc(b1-4)GlcNAc
# In short: as §1
# [35] = molecular target: Fuc(a1-3)[Gal(b1-4)]GlcNAc(b1-2)Man(a1-3)[Fuc(a1-3)[Gal(b1-4)]GlcNAc(b1-2)Man(a1-6)]Man(b1-4)GlcNAc(b1-4)[Fuc(a1-6)]GlcNAc
# In short: as §1
# [36] = molecular target: Fuc(a1-3)[Gal(b1-4)]GlcNAc(b1-3)Gal(b1-3)[Fuc(a1-4)]GlcNAc
# In short: as §1
# [37] = molecular target: Fuc(a1-3)[Gal(b1-4)]GlcNAc(b1-3)Gal(b1-4)[Fuc(a1-3)]GlcNAc
# In short: as §1
# [38] = molecular target: Fuc(a1-3)[Gal(b1-4)]GlcNAc(b1-3)Gal(b1-4)[Fuc(a1-3)]GlcNAc(b1-3)Gal(b1-4)[Fuc(a1-3)]GlcNAc
# In short: as §1
# [39] = molecular target: Fuc(a1-3)[Gal(b1-4)]GlcNAc(b1-3)GalNAc
# In short: as §1
# [40] = molecular target: Fuc(a1-3)[Gal(b1-4)]GlcNAc(b1-6)GalNAc
# In short: as §1
# [41] = molecular target: Fuc(a1-3)[Gal(b1-4)]GlcNAc(b1-6)[Gal(b1-3)GlcNAc(b1-3)]Gal(b1-4)Glc
# In short: as §1
# [42] = molecular target: Fuc(a1-3)[Gal(b1-4)]GlcNAc6S
# In short: as §1
# [43] = molecular target: Fuc(a1-3)[Gal3S(b1-4)]Glc
# In short: as §1
# [44] = molecular target: Fuc(a1-3)[Gal3S(b1-4)]GlcNAc
# In short: as §1
# [45] = molecular target: Fuc(a1-3)[Gal3S(b1-4)]GlcNAc6S
# In short: as §1
# [46] = molecular target: Fuc(a1-3)[GalNAc(b1-4)]GlcNAc
# In short: as §1
# [47] = molecular target: Fuc(a1-3)[GalNAc(b1-4)]GlcNAc6S
# In short: as §1
# Fuc(a1-4)GlcNAc = molecular target: Fuc(a1-4)GlcNAc
# In short: as §1
# Fuc(b1-3)GlcNAc = molecular target: Fuc(b1-3)GlcNAc
# In short: as §1
# Gal(a1-2)Gal = molecular target: Gal(a1-2)Gal
# In short: as §1
# Gal(a1-3)Gal = molecular target: Gal(a1-3)Gal
# In short: as §1
# Gal(a1-3)Gal(b1-3)GlcNAc = molecular target: Gal(a1-3)Gal(b1-3)GlcNAc
# In short: as §1
# [48] = molecular target: Gal(a1-3)Gal(b1-3)GlcNAc(b1-2)Man
# In short: as §1
# [49] = molecular target: Gal(a1-3)Gal(b1-3)GlcNAc(b1-2)Man(a1-3)[Gal(a1-3)Gal(b1-3)GlcNAc(b1-2)Man(a1-6)]Man(b1-4)GlcNAc(b1-4)GlcNAc
# In short: as §1
# [50] = molecular target: Gal(a1-3)Gal(b1-3)GlcNAc(b1-3)GalNAc
# In short: as §1
# [51] = molecular target: Gal(a1-3)Gal(b1-3)GlcNAc(b1-6)GalNAc
# In short: as §1
# [52] = molecular target: Gal(a1-3)Gal(b1-3)[Fuc(a1-4)]GlcNAc(b1-2)Man(a1-3)[Gal(a1-3)Gal(b1-3)[Fuc(a1-4)]GlcNAc(b1-2)Man(a1-6)]Man(b1-4)GlcNAc(b1-4)GlcNAc
# In short: as §1
# Gal(a1-3)Gal(b1-4)Glc = molecular target: Gal(a1-3)Gal(b1-4)Glc
# In short: as §1
# Gal(a1-3)Gal(b1-4)GlcNAc = molecular target: Gal(a1-3)Gal(b1-4)GlcNAc
# In short: as §1
binder,measurement,setting,value
LecB PA14 (Pseudomonas aeruginosa) (protein) MATQGVFTLPANTQFGVTAFANSAGTQTVNVQVNNETVATFTGQSTNNAIIGSKVLNSGGGGKVQILVSVNGRSSDLVSAQVILANELNFALVGSEDSTDNDYNDAVVVINWPLG,glycan array binding signal (z-score),[1],0.375
same,glycan array binding signal (z-score),[2],-0.743
same,glycan array binding signal (z-score),[3],-0.457
same,glycan array binding signal (z-score),[4],-0.301
same,glycan array binding signal (z-score),[5],-0.072
same,glycan array binding signal (z-score),[6],-0.365
same,glycan array binding signal (z-score),[7],0.321
same,glycan array binding signal (z-score),[8],2.07
same,glycan array binding signal (z-score),[9],0.581
same,glycan array binding signal (z-score),[10],-0.321
same,glycan array binding signal (z-score),[11],-0.581
same,glycan array binding signal (z-score),[12],-0.497
same,glycan array binding signal (z-score),[13],-0.053
same,glycan array binding signal (z-score),[14],0.154
same,glycan array binding signal (z-score),[15],-0.47
same,glycan array binding signal (z-score),[16],-0.191
same,glycan array binding signal (z-score),[17],0.672
same,glycan array binding signal (z-score),[18],-0.464
same,glycan array binding signal (z-score),[19],-0.555
same,glycan array binding signal (z-score),[20],-0.687
same,glycan array binding signal (z-score),[21],0.936
same,glycan array binding signal (z-score),[22],-0.605
same,glycan array binding signal (z-score),[23],-0.182
same,glycan array binding signal (z-score),[24],-0.255
same,glycan array binding signal (z-score),[25],-0.208
same,glycan array binding signal (z-score),[26],-0.429
same,glycan array binding signal (z-score),[27],0.193
same,glycan array binding signal (z-score),[28],0.828
same,glycan array binding signal (z-score),[29],1.75
same,glycan array binding signal (z-score),[30],-0.241
same,glycan array binding signal (z-score),Fuc(a1-3)GlcNAc,-0.19
same,glycan array binding signal (z-score),[31],-0.209
same,glycan array binding signal (z-score),[32],0.338
same,glycan array binding signal (z-score),[33],-0.362
same,glycan array binding signal (z-score),[34],-0.401
same,glycan array binding signal (z-score),[35],-0.163
same,glycan array binding signal (z-score),[36],0.201
same,glycan array binding signal (z-score),[37],0.034
same,glycan array binding signal (z-score),[38],4.17
same,glycan array binding signal (z-score),[39],-0.769
same,glycan array binding signal (z-score),[40],-0.311
same,glycan array binding signal (z-score),[41],0.475
same,glycan array binding signal (z-score),[42],2.1
same,glycan array binding signal (z-score),[43],-0.244
same,glycan array binding signal (z-score),[44],0.431
same,glycan array binding signal (z-score),[45],-0.189
same,glycan array binding signal (z-score),[46],5.42
same,glycan array binding signal (z-score),[47],2.49
same,glycan array binding signal (z-score),Fuc(a1-4)GlcNAc,1.58
same,glycan array binding signal (z-score),Fuc(b1-3)GlcNAc,-0.502
same,glycan array binding signal (z-score),Gal(a1-2)Gal,-0.53
same,glycan array binding signal (z-score),Gal(a1-3)Gal,-0.72
same,glycan array binding signal (z-score),Gal(a1-3)Gal(b1-3)GlcNAc,-0.235
same,glycan array binding signal (z-score),[48],-0.751
same,glycan array binding signal (z-score),[49],-0.562
same,glycan array binding signal (z-score),[50],-0.291
same,glycan array binding signal (z-score),[51],-0.11
same,glycan array binding signal (z-score),[52],2.54
same,glycan array binding signal (z-score),Gal(a1-3)Gal(b1-4)Glc,-0.164
same,glycan array binding signal (z-score),Gal(a1-3)Gal(b1-4)GlcNAc,-0.867
